Experimental data as given in the supplement of paper PMC12217912.
Some of the results follow. The full chains were built here from the parent and the listed change. Inactive controls read about 0.05.

B1: TEV protease; numbered along this chain (parent)
chain: MGESLFKGPRDYNPISSSICHLTNESDGHTTSLYGIGFGPFIITNKHLFRRNNGTLVVQSLHGVFKVKDTTTLQQHLVDGRDMIIIRMPKDFPPFPQKLKFREPQREERICLVTTNFQTKSMSSMVSDTSCTFPSGDGIFWKHWIQTKDGQCGSPLVSTRDGFIVGIHSASNFTNTNNYFTSVPKNFMELLTNQEAQQWVSGWRLNADSVLWGGHKVFMVKPEEPFQPVKEATQL

Variants of: B1
Experiment: raw area under fraction-flipped curve 0-4 h after induction (AUC4h, not background-subtracted), DNA-recorder readout of cleavage of the substrate (dimensionless); higher = more cleavage of the substrate by the protease variant
Conditions: temperature: 34 °C; time window: 0-4 h after rhamnose induction
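Note: Bxb1 expression induced with 0.2% (w/v) L-rhamnose at OD600 near 0.5, cultures sampled hourly, flipped fraction per protease–substrate barcode pair counted by paired-end Illumina sequencing.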

| Variant | area with substrate DNLYFQS | area with substrate GNLYFQS | area with substrate HNLYFQS | area with substrate LNLYFQS | area with substrate MNLYFQS | area with substrate NNLYFQS | area with substrate PNLYFQS | area with substrate TNLYFQS | area with substrate VNLYFQS | area with substrate WNLYFQS | area with substrate YNLYFQS | area with substrate INLYFQS | area with substrate KNLYFQS | area with substrate RNLYFQS | area with substrate SNLYFQS | area with substrate FNLYFQS | area with substrate QNLYFQS |
| --- | --- | --- | --- | --- | --- | --- | --- | --- | --- | --- | --- | --- | --- | --- | --- | --- | --- |
| S182Q | 0.0535 | 0.0518 | 0.0452 | 0.0604 | 0.0133 | 0.0522 | 0.0701 | 0.0566 | 0.0571 | 0.0572 | 0.0453 | – | – | – | – | – | – |
| I164K | 0.0521 | – | 0.0571 | – | 0.0516 | – | 0.0563 | – | – | 0.0457 | – | – | – | – | – | – | – |
| I164S | 0.0533 | – | 0.0534 | 0.0628 | 0.0443 | – | 0.0762 | – | 0.0429 | 0.0566 | 0.0516 | 0.0498 | 0.035 | 0.0562 | 0.0546 | – | – |
| I164R | 0.0605 | 0.0529 | 0.0519 | – | 0.0494 | 0.0429 | 0.056 | 0.0545 | – | 0.056 | 0.0485 | 0.06 | 0.0604 | – | – | 0.0516 | – |
| S130L | 0.0672 | 0.0609 | 0.0659 | 0.062 | – | 0.0451 | – | 0.0599 | 0.0482 | 0.0481 | 0.0652 | 0.0625 | 0.0584 | 0.0504 | 0.0441 | 0.0533 | – |
| D128P | 0.0893 | 0.083 | 0.0637 | – | – | – | 0.0772 | 0.1 | – | 0.0769 | – | 0.0611 | – | – | 0.0686 | – | – |
| V157M | 0.0774 | 0.0633 | 0.0614 | – | 0.0661 | – | 0.0622 | 0.0584 | 0.0486 | 0.0602 | 0.0487 | 0.0634 | – | – | 0.0671 | 0.083 | – |
| V157Y | 0.0706 | 0.058 | 0.0134 | 0.0688 | 0.0629 | – | – | 0.0605 | 0.0752 | 0.0423 | 0.0511 | 0.0503 | 0.0596 | – | 0.0414 | 0.0651 | 0.0562 |
| K142C | 0.127 | 0.0646 | 0.0686 | – | 0.0105 | – | 0.091 | 0.0744 | 0.0727 | 0.0938 | 0.0649 | 0.0679 | 0.0794 | – | – | 0.0627 | – |
| K142V | 0.0693 | 0.0751 | 0.0691 | 0.0637 | – | – | 0.0831 | 0.0685 | – | 0.064 | 0.073 | – | – | 0.0579 | – | – | – |
| F180R | 0.0515 | 0.0282 | 0.0181 | 0.0508 | 0.0289 | – | 0.0481 | 0.0514 | 0.0631 | 0.0563 | 0.0426 | – | 0.0333 | – | – | 0.0455 | 0.0562 |
| W141Y | 0.0528 | 0.0572 | 0.0664 | – | 0.0826 | 0.0625 | 0.0544 | 0.0501 | – | – | – | 0.0629 | – | – | – | 0.0474 | – |
| W141T | 0.0217 | 0.0504 | – | 0.0639 | 0.0575 | 0.034 | 0.0537 | 0.046 | – | 0.0433 | – | 0.0604 | 0.0582 | – | – | 0.0564 | – |
| W141V | 0.0408 | 0.0496 | 0.0481 | – | 0.0795 | 0.0462 | 0.0594 | 0.0639 | 0.0309 | 0.0561 | 0.0282 | 0.0403 | – | – | – | 0.0501 | – |
| I167N | 0.0504 | – | 0.058 | 0.0567 | – | – | 0.0526 | 0.0988 | 0.0498 | – | 0.0436 | 0.0413 | – | – | 0.0452 | 0.0555 | – |
| I167H | 0.0543 | 0.0507 | 0.0613 | 0.0319 | 0.0311 | – | – | 0.0554 | – | 0.05 | – | – | 0.0497 | – | 0.0573 | – | – |

| Variant | area with substrate DNLYFQS | area with substrate GNLYFQS | area with substrate HNLYFQS | area with substrate LNLYFQS | area with substrate MNLYFQS | area with substrate NNLYFQS | area with substrate PNLYFQS | area with substrate TNLYFQS | area with substrate VNLYFQS | area with substrate WNLYFQS | area with substrate YNLYFQS | area with substrate INLYFQS | area with substrate KNLYFQS | area with substrate RNLYFQS | area with substrate SNLYFQS | area with substrate FNLYFQS | area with substrate QNLYFQS |
| --- | --- | --- | --- | --- | --- | --- | --- | --- | --- | --- | --- | --- | --- | --- | --- | --- | --- |
| N175V | 0.0527 | – | 0.0402 | – | 0.0377 | 0.0594 | 0.0527 | 0.0629 | – | 0.06 | 0.118 | 0.047 | – | 0.0595 | – | 0.0596 | – |
| D137E | 0.099 | 0.0839 | 0.0741 | 0.0663 | 0.101 | – | – | 0.0694 | 0.0782 | 0.0709 | 0.0679 | – | 0.0694 | – | – | 0.0653 | – |
| D161E | 0.0603 | 0.0713 | 0.0633 | 0.0617 | 0.0646 | 0.0472 | 0.0576 | 0.0744 | 0.053 | 0.053 | 0.0375 | 0.0625 | 0.0304 | – | 0.0189 | 0.0548 | – |
| D149C | 0.0385 | 0.0636 | 0.0422 | 0.0695 | – | – | – | – | – | 0.0745 | – | – | – | – | – | 0.0471 | – |
| F173G | 0.07 | – | 0.0502 | – | 0.0668 | – | 0.0643 | – | – | 0.0742 | – | 0.0639 | 0.069 | – | – | – | – |
| F173Q | 0.0644 | – | – | – | – | – | 0.076 | – | – | 0.0545 | – | – | 0.0635 | 0.0582 | – | – | – |
| F173W | 0.0837 | 0.0592 | 0.072 | – | – | 0.0502 | 0.0626 | 0.0612 | 0.0524 | 0.0527 | 0.0508 | 0.0612 | 0.0532 | – | – | 0.0779 | 0.0744 |
| S127V | 0.0902 | 0.0779 | 0.0762 | 0.0644 | 0.105 | 0.0506 | 0.0872 | 0.07 | – | 0.0609 | – | – | 0.0391 | 0.0606 | 0.0699 | 0.0754 | 0.0764 |
| P155R | 0.0517 | 0.0523 | 0.054 | 0.0539 | 0.0582 | – | – | 0.0455 | 0.0558 | 0.0575 | 0.0381 | 0.0501 | – | 0.0661 | 0.0443 | 0.0469 | – |
| K148Y | 0.0833 | – | 0.0742 | 0.0604 | 0.0622 | – | – | 0.0689 | – | 0.0621 | 0.0641 | – | – | – | 0.075 | – | – |
| S135Q | 0.062 | – | 0.0521 | 0.0655 | 0.0537 | 0.0695 | 0.0584 | 0.05 | – | 0.0579 | 0.0575 | 0.0547 | 0.0423 | – | 0.0706 | 0.0575 | – |
| T181S | 0.071 | – | 0.0788 | – | 0.0692 | – | 0.062 | – | 0.06 | 0.0363 | – | – | – | – | 0.0741 | 0.0676 | – |
| T181R | 0.0199 | – | – | 0.0522 | – | – | 0.0618 | 0.0629 | 0.0453 | 0.0377 | – | 0.045 | 0.0656 | – | – | – | – |
| T147L | 0.0521 | – | 0.0619 | – | – | 0.0522 | 0.0616 | 0.0555 | – | 0.0577 | 0.0525 | 0.0563 | 0.0788 | 0.0501 | – | 0.0535 | 0.0554 |
| V183S | 0.0715 | – | – | – | 0.0661 | 0.0599 | 0.0626 | 0.0325 | – | 0.0485 | 0.0475 | – | 0.0585 | – | – | – | – |
| F140D | 0.0822 | – | 0.0614 | 0.0652 | 0.0725 | – | – | 0.0463 | 0.0702 | 0.0602 | 0.0721 | – | – | – | 0.0537 | 0.0604 | – |
